Values marked as one replicate rest on one cluster of the flow cell; about a third of the high ones do not repeat.
System: ATP
Assay: switch fluorescence ratio, 500 uM ATP over buffer (Cy3 cluster intensity, sum of 5 cycles each) (fold (ratio)); higher = stronger signal-on switching upon ATP binding; sequences stand for … in TCGTCGGCAGCGTCAGATGTGTATAAGAGACAGTTTTTTTTTTTTTTTTTTTTTTTTT…TC
Settings: aptamer strand: ATP DNA aptamer (quencher-CACCTGGGGGAGTATTGCGGAGGAAGG + anchor), 100 nM annealed; ATP concentration: 500 uM; one replicate
Method in brief: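 Between each of five buffer/ATP cycles, the flow-cell was stripped with NaOH and re-annealed. Each cycle imaged Cy3-labelled switching-strand clusters, annealed to 100 nM quencher-labelled ATP aptamer on a modified Illumina MiSeq flow-cell, first in selection buffer and then after 15 min with 500 uM ATP at 22 °C. The fluorescence ratio is summed target-cycle over summed buffer-cycle Cy3 intensity per cluster, averaged per switch-domain sequence, with clusters outside 100-1000 RFU excluded.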
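Also: ATP exposure 15 min at 22 °C before imaging.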

Sequence	switch fluorescence ratio
CGAGATTTAG	1.02
TTCGATGTTT	0.969
TGGTATCTGT	0.989
TGGGATCTAC	1.02
GCATGGTAAT	1.01
GAGTTGATTG	0.998
CCCAGTAATC	3.74
TATTGGAGG	0.978
ATCAGAAGGC	0.94
ATTCAAGATA	0.98
TGTGTGTCGC	1.02
ACTGAAATTT	1.01
ATTGTCGGTG	1.06
CGGCACTGGG	0.993
GGCTTGGGTC	0.967
TTTAACTTAA	0.997
AGTTTGTATG	1.01
TCGCTTTGCG	0.979
ATTCATGTCC	1
TTAGTATCTA	1.02
GGCATGTCAT	1.01
CGGCACCAGT	1.01
ATGTCACTGG	1.07
CGCCAGTCGG	0.986
AAGGTTAACC	0.957
GTAGTGAGGT	1.02

Sequence	switch fluorescence ratio
CCACGAGCCC	1.39
TGATTTCGTA	0.98
GGCATCATCG	1.09
TTAACATCAA	0.974
TACAATTCGG	0.963
CGGTATGGA	0.996
TCTTGCGGAT	1.01
AGATTCCACG	1.1
CCTGAGCAGA	2.08
GCTGTTAGAC	1.06
CAGATTCTTG	0.979
TGAATTACCA	1.09
TCTGGTTTAT	0.983
CCCGCTTGCC	1.4
CCAATCCTAA	1.01
ACAGGAAGAA	1.11
TCACAGCCGT	1.05
GCGCCTAGTA	0.992
GGGAGTTCCC	1.05
AGGTGAGGGA	1.03
TGTTCCTTAG	0.979
ATTCGGTGGC	1
TTCCACTGGG	1.1
TCCTGACACG	1.09
GGACAAATGG	1.01
AGAATCGGG	0.988

Sequence	switch fluorescence ratio
CTTCATGTCC	0.915
ACCCACCCGT	1.28
TTGCTACCAT	0.976
CGCTAACGGA	1.1
GGGAACGCGG	1.14
CCTTATACAA	1.16
TCGTGGGCTT	0.981
GCGACTG	0.996
GGCGTAGGTC	1.03
CATTCAGCCC	1.02
GGTCTTGAA	1
CCCCCGA	1.01
AATACGTGAT	1.04
ATTGTTAAT	1.03
GTAAGTGATC	1.01
CTCGTGATTA	1.04
ACGGCTGAGA	1.03
ACCTTTCCTT	1.3
TAACATTGCA	0.996
TTTTATTAGG	0.95
GTGGCGGAG	0.966
TCATCGATA	1.01
AGGGGCAGCC	1.01
ACCTGGGAAA	1.01
GTAGGTACGG	1.04
CCGCTTCGTC	1.84

Sequence	switch fluorescence ratio
TCTCGAAAGG	0.963
GCGGCTAATT	1
TGTACGAAGT	0.98
GCTCTTCC	1.8
GTAAACTTCG	1.11
CGATGAGCT	1.01
TGTTGCTGTT	1.04
TAGGGTGAAC	1.01
GGGCTGGTCA	1
CCTGCTGCAG	1.32
TTCACCCGA	1
AGGCCTACGC	1.24
TGGGTGTAAT	0.957
CAATAAGAGT	1.02
CGTGGCAG	0.953
GTTGTCAATA	1.02
TCCATTCATT	0.988
TCGAATCTTC	1.05
GACATAAC	1.1
TAGGATGGAT	0.997
CGCTCTTGA	0.99
CTCGAATGC	1.34
AACTATTAGG	0.975
GCGATTCGTG	0.962
ATGGCGAGTC	1.04
TAGCACGTCT	0.934

Sequence	switch fluorescence ratio
CTATGGACAT	0.994
GCCCGCTTTC	1.95
ATTTGTGCGC	0.963
ATTCGGCGGG	1
GGCATACTAT	1.05
ACATGGGCAT	0.965
AATCGCACG	1.05
TGTCAGTAAA	1.03
AAAATCGTGT	0.99
GCTTTTGTCT	1.04
ATTATCATCG	1.01
GGTAATTCTA	0.99
GAGAAGCATG	1.02
ATTATTGCAA	0.98
GCCCAATCGC	1.11
AACCCGTCGT	1
GTCACAATTT	0.978
CTGTGACTGT	1.01
CCATTCACCA	1.02
CCGACTGTGT	1.24
AGCAGCACAT	1.15
TACTTTGGAC	1.04
TTATCCAGGT	0.939
TGTTAGTCAC	1.03
TTTCCCGTA	1.06
AAGGGTGTG	1.05

Sequence	switch fluorescence ratio
TTATTGGGTA	1
GTGAAAGTTG	1.11
TATTGGCCCT	1.07
TCGCTCATCG	0.988
AGTAAGGTC	0.974
GACGGAAGTA	1.02
GTCCTAAAGC	1.07
AGGCCTCTTG	1.01
GGGGGTCCTG	1.04
GGGTATGGT	0.95
GTAAAATGAC	1.01
CTTTGGCGC	1.03
TACGGGCAGC	1.04
ACTGAGTGTA	1.03
TCGTAAGATT	1
ACACGACATG	1.04
CACACATAAT	1.02
CAAGATAGCA	1.03
CAGAAGTGCC	1.04
CTACTGGTTT	0.992
CTGTCCTTGT	1.01
CTATCATAA	1.01
CGAAAATTTC	1.04
CTTTGGGAAT	0.984
